Measured values as given in the supplement of paper PMC3334620.
In all, about 33,000 sequences were measured (“E-score (-0.5 to 0.5)”: median about -0.01, highest 2% from about 0.26 on). The list shows a part of the results.

Target: Ste12 (UniProt P13574)
Experiment: PBM E-score (8-mer binding enrichment) (E-score (-0.5 to 0.5)); higher = stronger / more preferred TF binding; most listed sequences are background and not binding sites
Settings: protein concentration: 200 nM; construct: GST-DNA-binding domain
In short: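 Using PURExpress in vitro transcription/translation, GST-tagged yeast transcription factors were made in full-length or DNA-binding-domain form. These were applied at about 100-200 nM to double-stranded universal all-10-mer Agilent arrays, and bound protein was detected with fluorescent anti-GST. Scans were normalised with masliner before the Universal PBM Analysis Suite assigned E-scores to ungapped eight-base words pooled with their reverse complements.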

Sequence	PBM E-score
CCGAATCA	0.0251
TAGGGGAA	-0.0488
ACAGTCCC	-0.178
CCTTGAAG	-0.00773
ACCCCATA	0.048
AGAAGGAT	-0.202
TACGTGCA	0.0392
CACATCAA	0.185
GGGTCGTA	-0.11
GACACGAA	0.032
GAATCAAC	0.0498
AGCTCTAG	-0.16
CATGGGTC	-0.111
GCGTTATA	-0.0221
GACTCCCA	-0.0191
AGACTTCA	-0.0614
AATAAGAA	0.276
AAAGAATA	0.195
GTCCTCTA	-0.371
TCCCGACA	0.127
CTTCGTGC	0.0941
AGGGCGTC	-0.15
ATGGGCCC	-0.0824
CAACGGAC	-0.116
CGCTTGCA	0.181

Sequence	PBM E-score
CGCCGCAG	0.0202
ATTTTACA	0.113
CTCCCCTA	-0.0541
TAGCCTCA	-0.14
CTCAATCC	0.0296
GGCGACTA	-0.213
ACGCCAGC	-0.206
AGTCGATC	-0.0899
TCCTAACA	-0.0578
TACCACAA	0.185
AGCAGGCA	-0.153
ACGACAAA	0.21
CTTCAGCC	-0.187
ACGTAGCG	-0.0127
AAAACACC	0.213
CGAGTTAA	0.112
CACTGAAG	-0.03
CGGGCCTC	0.0175
CAAGGTCG	-0.0128
AAGAGTCT	-0.126
CCATTAGC	-0.0312
CGATTCAG	0.0921
GCTGTCTA	-0.262
AATTGGTA	0.0529
AAGTTATA	0.222

Sequence	PBM E-score
GGCGTATA	0.0675
ACCGAACC	-0.13
ATGCTAGA	-0.0991
GATTAACA	0.0472
ACAAAGCG	0.0772
GCTAGCGA	-0.0311
ACGGAGAC	-0.029
TCTAGTAA	0.0451
CATCCTGG	0.0367
ATTACCGG	0.00155
ATGGATGG	-0.0589
CGGCTCGA	-0.106
AGACCTGG	-0.132
TCATTAGA	0.111
ATTACTAC	-0.103
TCGCGCCA	0.102
ATTAGCAG	-0.0098
AGTTTCGA	0.11
CCATTGGC	-0.0456
CGTAGGAA	0.00401
ACAGCCGT	-0.0628
CTAACCGC	-0.0118
CCGGAGAG	-0.0466
AGGTGGTG	0.0096
CTATAGAA	-0.0569

Sequence	PBM E-score
GATGATCC	-0.232
GGTATTTA	0.167
AAAAGAAG	0.072
ACGGACCG	-0.187
GAACTTGA	0.142
ATGCTTTC	0.075
ATGATGTA	0.146
AGCACATA	-0.0905
ATTTCCCC	0.142
GATGCACA	-0.112
GTTGTCGA	-0.00271
ACTCGGGC	-0.196
TACCTACA	-0.0205
AACTTTCC	0.0828
ATAAGAAA	0.195
ACTAACCG	-0.0839
ACCCGAGT	-0.0216
TAGTCGGA	-0.006
AACGAAAA	0.213
AACGAGAA	0.128
CTTACGTA	-0.24
CTAACTCC	-0.0702
TTATCGAA	0.196
ATCGTAGA	-0.129
CCGGGCTC	-0.103

Sequence	PBM E-score
ACGCCAAG	0.0325
GAACGAGC	-0.105
AGGGTCGC	-0.00242
AATAAGCA	-0.0033
AGGACACG	-0.307
AATTATCA	0.203
AAGAAGCG	-0.162
CGATTCAC	-0.0898
AACTGGAC	0.0281
ATACGCAA	0.0223
ACTGGGGA	-0.161
AGTCTTGA	-0.105
ATGCCTAA	-0.192
ACCGCCTG	-0.127
ATCTACCA	0.107
GAGTGACA	0.0563
GAGGACTA	-0.0759
CTAACGTC	-0.0422
CGCTGGAG	-0.0992
CACGAACG	-0.0651
AACCTCCA	-0.228
GACTGCGA	0.0971
GATGGTGA	0.118
CCCACCAC	-0.0565
GCGGGAAC	-0.188

Sequence	PBM E-score
CAAGCTGG	-0.0954
CCAACGCC	-0.0735
ATTGCAAC	0.105
AAACCGGG	0.194
TAGATAGA	-0.0561
TCATTCGA	0.0623
AACCCCCG	-0.133
AACCCCAG	0.0169
AACTGCGA	-0.0262
ATTTTTCC	0.204
CTGGAAGA	-0.0572
AGAAAGAA	0.151
GCTGCTGA	-0.0225
AGGTGCGA	-0.00836
CTGACCGA	-0.00851
GCTCTCCA	-0.149
AACTTTCA	0.118
GCAGCGTA	-0.201
AAAGGCCT	-0.254
AAAGAACC	0.132
ATTTAGAC	0.00579
GCGCGTAA	-0.0247
TACTGATA	0.198
AGTCACAC	-0.0427
CTTTTTGC	0.228

Sequence	PBM E-score
AGATGTAG	-0.0399
AGGGATAG	-0.00141
AGATCGGC	-0.13
CTAGTTCA	0.0304
GAACCTTC	-0.0978
GAAAGCGC	-0.156
AACCAGTG	-0.113
CGAAGCAG	-0.0736
TTCCTCAA	-0.00471
ACAGCTGG	-0.0214
ACCAAAGT	0.00543
GTAAAAGA	0.0116
CACTTTAA	0.159
CGTGTACA	-0.0949
ATGGCGTG	-0.00074
AGATTCGC	-0.0107
ATACCACG	0.0272
CACTGCAG	-0.103
CCTAGACG	-0.134
CTAATTTA	0.157
GATTGTGC	-0.0156
CCTGCCGC	0.0664
TCGGTAAA	0.194
ACATCGCG	0.111
TAAGTTAA	0.0894

Sequence	PBM E-score
CGTCAACG	0.0143
ACCAGCTC	-0.127
ATGCCCGG	-0.0194
AAAATCCT	0.0166
CCTGGATA	-0.167
GATCGGCC	-0.119
GTATGCAC	-0.304
CACTTTTC	0.209
CCGCCGCG	0.156
ATCCTTTG	0.0895
ACCTTTTA	-0.0665
ACAGGCCG	-0.142
AACACTCA	0.14
AGGAGCCA	-0.311
TGGTGGAA	-0.014
GCAGTGTA	0.0131
GAGTACTC	-0.0929
GCTGCCAC	0.0519
AAGGACAT	-0.0394
GAAAAATA	0.217
AGTCTCCG	0.0185
ACTGACGA	-0.0103
AGATACTC	-0.0363
CTTGCAAA	0.207
GAATTGTA	0.0137

Sequence	PBM E-score
AGAAACAA	0.26
CATAACCC	0.0861
AACCACGA	0.115
CAGATGCA	-0.252
GATTATGA	0.045
CAAGTTCA	0.117
CCGTTCGA	-0.014
CGCGGCTC	0.0634
CTGCAGAA	0.0476
GCTTCGGA	-0.12
AGCTGGTG	-0.0858
CATTTAGG	-0.205
CATGGCGG	-0.0453
ATACAGAA	0.133
CCGTGGCG	0.124
CCTTAAAG	-0.0939
AATTTTAC	0.251
ACCACGGG	-0.202
GTGTTATA	0.0175
